Measured values reported in CN115028722A (BIOCELLS BEIJING BIOTECH CO LTD, dated 2022).

Target: T1, hTSLPR/hIL-7Rα-293T/17细胞 (293T/17 cells stably expressing human TSLPR and human IL-7Rα) (human, UniProt Q9HC73 23-371; P16871 21-459)
T1 sequence 1: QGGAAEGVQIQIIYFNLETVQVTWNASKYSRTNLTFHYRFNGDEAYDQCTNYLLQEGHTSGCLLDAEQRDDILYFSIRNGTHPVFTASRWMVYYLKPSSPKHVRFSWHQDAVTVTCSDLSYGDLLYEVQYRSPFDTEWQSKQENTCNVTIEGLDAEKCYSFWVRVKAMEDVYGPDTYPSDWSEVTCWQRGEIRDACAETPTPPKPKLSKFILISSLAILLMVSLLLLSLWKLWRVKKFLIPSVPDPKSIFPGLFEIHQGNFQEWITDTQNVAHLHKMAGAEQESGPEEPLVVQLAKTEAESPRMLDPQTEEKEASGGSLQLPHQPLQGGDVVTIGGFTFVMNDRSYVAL
T1 sequence 2: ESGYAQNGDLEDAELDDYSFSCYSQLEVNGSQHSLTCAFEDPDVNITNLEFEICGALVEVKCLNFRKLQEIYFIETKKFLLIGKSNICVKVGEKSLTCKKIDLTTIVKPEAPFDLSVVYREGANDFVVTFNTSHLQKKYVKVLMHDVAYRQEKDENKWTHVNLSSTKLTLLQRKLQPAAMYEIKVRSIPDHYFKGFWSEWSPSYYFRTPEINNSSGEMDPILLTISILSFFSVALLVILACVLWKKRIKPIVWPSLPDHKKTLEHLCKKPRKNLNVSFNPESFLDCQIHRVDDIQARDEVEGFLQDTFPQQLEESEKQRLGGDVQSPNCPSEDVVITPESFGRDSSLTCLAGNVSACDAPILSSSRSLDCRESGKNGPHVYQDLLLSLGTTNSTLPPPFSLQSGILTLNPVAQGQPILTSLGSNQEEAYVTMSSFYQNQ
Experiment: cell ELISA: rhTSLP-His serially diluted from 1 μg/ml on hTSLPR/hIL-7Rα-293T/17 cells, anti-His-HRP, OD450

B1: 包含有His标签的重组人源TSLP蛋白(rhTSLP-His) (ligand)
chain: not shown
notes: also called rhTSLP-His重组蛋白; rhTSLP-His蛋白
binding result: binds
